# Measured values published in PubChem BioAssay AID1745853 (National Center for Advancing Translational Sciences (NCATS), 2022).
# Some of the results follow. Further columns of the screen follow, without active or inactive calls.
# What was measured:
# Experiment in all cases: Primary Screen for Target Class Profiling of Small Molecule Inhibitors of Methyltransferases
# [1] = molecular target: Glycine N-methyltransferase (Homo sapiens) (UniProt Q14749); settings: purified enzyme, MTase-Glo SAH luminescence; measured here: GNMT inhibition; at 40 µM; stronger effect = lower value
# Procedure, shortened: (§1)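 Each enzyme was assayed with SAM and its substrate. SAH formation detected by MTase-Glo luminescence; single-point 40 uM screen[…].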
# [2] = molecular target: Guanidinoacetate N-methyltransferase (Homo sapiens) (UniProt Q14353); settings: purified enzyme, MTase-Glo SAH luminescence; measured here: GAMT inhibition; at 40 µM; stronger effect = lower value
# Procedure, shortened: as §1
# [3] = molecular target: Histamine N-methyltransferase (Homo sapiens) (UniProt P50135); settings: purified enzyme, MTase-Glo SAH luminescence; measured here: HNMT inhibition; at 40 µM; stronger effect = lower value
# Procedure, shortened: as §1
# [4] = molecular target: Nicotinamide N-methyltransferase (Homo sapiens) (UniProt P40261); settings: purified enzyme, MTase-Glo SAH luminescence; measured here: NNMT inhibition; at 40 µM; stronger effect = lower value
# Procedure, shortened: as §1
# [5] = molecular target: Phenylethanolamine N-methyltransferase (Homo sapiens) (UniProt P11086); settings: purified enzyme, MTase-Glo SAH luminescence; measured here: PNMT inhibition; at 40 µM; stronger effect = lower value
# Procedure, shortened: as §1
# % is scaled to controls: 0 for no effect and ±100 for the full control effect.
Compound,"activity change, negative = inhibition [1] [%]","activity change, negative = inhibition [2] [%]","activity change, negative = inhibition [3] [%]","activity change, negative = inhibition [4] [%]","activity change, negative = inhibition [5] [%]"
C=C1C(=O)O[C@H]2[C@H]1[C@@H](OC(=O)C(C)CO)C[C@@]1(C)[C@H](O)CCC(=O)[C@H]21 (some centres undefined),0,-1.54,2.63,-12.8,3.15
O=C1CC2(CCN(C(=O)c3ccccn3)C2)Nc2ccccc2N1 (centres undefined),-2.23,-11.4,0.096,-18.7,-5.43
CCC1c2ccc(C)n2CCN1C(=O)Nc1cccc(Cl)c1C (centres undefined),-1.75,4.75,-2.23,-6.99,-4.49
Cn1c(CNC(=O)CC2CCOC3(CCN(S(C)(=O)=O)CC3)C2)nc2ccccc21 (centres undefined),-3.38,-3.4,-2.78,-7.56,-2.7
COc1ccc2c(c1)CCC1C2CC[C@@]2(C)C1CC[C@@H]2NCCCCCCN1C(=O)C=CC1=O (some centres undefined),0.052,8.77,3.9,-1.1,7.41
NCC(=O)Nc1ccc(-n2nc(C(F)(F)F)cc2-c2ccc3c(ccc4ccccc43)c2)cc1,5.7,7.07,10.3,-16,6.22
CC(C)OCCCN1C(=O)c2cc3ccccc3n2CC1(C)C(=O)NC1CCCCC1 (centres undefined),-0.349,1.2,3.73,6.97,1.38
CCNC(=O)[C@@H]1C[C@H](NC(=O)c2ccc(=O)n(C)c2)CN1Cc1ccoc1,-3.74,-3.34,0.169,-3.7,-1.12
CCC(C)NC(=O)c1ccc2c(=O)n(CC(C)C)c3nn(CC(=O)Nc4ccccc4)c(=O)n3c2c1 (centres undefined),3.6,0,6.13,1.26,5.07
Cc1ccccc1N1C(=O)c2cc3sccc3n2CC1(C)C(=O)NC1CCC(C)CC1 (centres undefined),1.07,0,2.1,1.02,1.55
Cn1nc2n(Cc3ccccc3)c(=O)c3ccc(C(=O)NC4CCCCC4)cc3n2c1=O,-4.91,-1.45,2.23,-11.8,-6.82
Cc1noc2c(NCCc3ccccn3)cc(-c3ccccn3)nc12,-32.8,-11.8,-13.4,-26.7,-27.2
Cn1c(=O)c2[nH]c(C3CCCC3)nc2n(C)c1=O,-12.2,-1.61,-3.06,-13.3,-3.71
O=C(O)c1cc2c(s1)CN(C1CCCC1)C2,-0.246,-0.411,2.39,-2.49,10.8
CCOCCCNc1nc2c(S(=O)(=O)c3ccc(CC)cc3)nnn2c2ccc(Cl)cc12,-10.1,0,-0.691,-3.72,-2.86
Nc1nc(=O)n([C@H]2C[C@H](O)[C@@H](CO)O2)cc1F,11.7,,16.4,-8.29,-11.8
CNC(=O)c1ccc(-c2cnc3ncc(Cc4ccc5ncccc5c4)n3n2)cc1F,-30.8,-0.083,-12.1,-27.7,-11.9
